Experimental findings from publication PMC6032326, “Connexin43 Carboxyl-Terminal Domain Directly Interacts with β-Catenin” (International Journal of Molecular Sciences, 2018) are described below.

The data set concerns the molecule itself. The data set can be described thus: SPR; Biacore 1000, 25 °C; Cx43CT (S255–I382) immobilised on a CM5 chip by amine coupling; 213 mM phosphate buffer pH 7.1, 5 μL/min; 5 μL injections of β-catenin CT (4 μM) or Cx43CT (10 μM).

B1: Connexin43 carboxyl-terminal domain ([…]) (domain or fragment)
chain: not shown
notes: Connexin43 (Cx43), rat, carboxyl-terminal domain, […], the construct of the SPR study; Used both immobilised on the chip and as analyte (positive control); also called Cx43CT ([…]); Cx43CT; source: bacterial expression vector pGEX-6P-2, expressed and purified in 1x PBS as previously described
B1: the binding result is “binds”.
